Results published in the supplement of paper PMC11417369.
± gives the standard deviation of the averaged measurements. Some of the results follow.

System: PfAP2-LT AP2 domain (GST-tagged)
Assay: gcPBM binding intensity (ln(normalized median fluorescence intensity)); higher = stronger DNA binding
Method in brief: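 GST-fused DNA-binding domains of P. falciparum, expressed in E. coli, were applied at about 25 μg on average for 1 h to an Agilent 4 × 180k array of primer-extended double-stranded 36-bp intergenic genomic probes and negative controls. Binding intensity is the highest Masliner-normalised natural-log median intensity across replicate spots of either probe orientation, measured with Alexa488 anti-GST antibody and a 488 nm scan.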

First: AATTATTTTAAATATTGTACTATTACAGAATGGTGT [XGTACX_site5693]
Second: AGCAGACACCAACACACACACATATATATATATATA [CACACA_site337]
The “gcPBM binding intensity (ln)” value of the first is lower: 8.78 ± 0.44 for the first, 10.4 ± 0.13 for the second.

“CTCTAATTAATATTTGTACACACATATTTAACCTAC [CACACA_site9043]” and “TCAAATTACGTAAGAACATGCGATATAAGAAATACG [TGCATGCA_site691]” are within error of each other in “gcPBM binding intensity (ln)” value: 9.13 ± 0.43 for the first, 8.95 ± 0.39 for the second.

“TAACTTTATTTTCCTGTACACACATTTGACATATTA [CACACA_site9116]” and “TATATATTAATCAAAGTGCAATAATAAAATAAAAGT [GTGCAC_site9490]” are within error of each other in “gcPBM binding intensity (ln)” value: 9.14 ± 0.34 for the first, 9.05 ± 0.38 for the second.

“TTTATACAAAAGAACAGTACAATAAAGGATTTATGA [XGTACX_site811]” and “AATAAAATATAAACATTATATATATATATATATATA [GTGCAC_negctrl_site58]” are within error of each other in “gcPBM binding intensity (ln)” value: 8.67 ± 0.47 for the first, 9.21 ± 0.2 for the second.

“ATTTTTTCTTTTTTTTTTCCGTTTTTTTGGACATTT [CACACA_negctrl_site1174]” and “TAAAGGAGCCTATGAACACACACATGTACTTATATT [CACACA_site9351]” are within error of each other in “gcPBM binding intensity (ln)” value: 8.72 ± 0.45 for the first, 9.26 ± 0.38 for the second.

“AATTGTTTGTTTGGGTGTACATGGTTCTATATAAAT [XGTACX_site7940]” and “ATAAAAAATAAATAAGGTACAGAACATTTATACATT [XGTACX_site1783]” are within error of each other in “gcPBM binding intensity (ln)” value: 9.11 ± 0.4 for the first, 8.92 ± 0.47 for the second.

“AAATTAAACAATAAATGTACATATATATTTGTATAT [XGTACX_site1092]” and “AACAAGGTATTAGGGTGTACTATATATATTTATATT [XGTACX_site7776]” are within error of each other in “gcPBM binding intensity (ln)” value: 8.82 ± 0.49 for the first, 8.85 ± 0.33 for the second.

“TTTATTACCATATTTTGTACACACATCTTTATCTCA [XGTACX_site6842]” and “CTTTTATTGCTCTATATGCACACCTTAATTCTTCAT [CACACA_site2195]” are within error of each other in “gcPBM binding intensity (ln)” value: 9.53 ± 0.63 for the first, 9.2 ± 0.52 for the second.

“GCAAAATTTCCTAAGGTGCTTTTATTTTACACCGTT [GTGCAC_site9923]” and “AATGGGTTAGCACATACACACCAATATATTATAGAT [CACACA_site7444]” are within error of each other in “gcPBM binding intensity (ln)” value: 8.94 ± 0.38 for the first, 9.09 ± 0.48 for the second.

“AAAACCTAAAAGTCTTAAATTTTAAATATACCTACA [GTGCAC_negctrl_site492]” and “TAATTTGAACGGTACAGTACTCTTTTTCTTTTTCAT [XGTACX_site5534]” are within error of each other in “gcPBM binding intensity (ln)” value: 8.51 ± 0.41 for the first, 8.76 ± 0.47 for the second.

“ATATATTTTTTCAATTGTACGTTTTAATAATATTTA [XGTACX_site2130]” and “AATACAACATAATGAAGTACTGTATTTTATATTACT [XGTACX_site4885]” are within error of each other in “gcPBM binding intensity (ln)” value: 8.73 ± 0.41 for the first, 8.84 ± 0.49 for the second.

“TTTCTTTGAATAAATACACACGAGAAATGAAAGTAG [CACACA_site8490]” and “ATGAAATCTTTAGAATATAGATGATGTTATTTAATT [XGTACX_negctrl_site511]” are within error of each other in “gcPBM binding intensity (ln)” value: 8.84 ± 0.43 for the first, 8.38 ± 0.38 for the second.

“ACTCTATACATCTAATGTACATGGAAAAAAAAATTC [XGTACX_site733]” and “ACATTGACATGTCGAAGTACTCAAGAAGCATACAAT [XGTACX_site3948]” are within error of each other in “gcPBM binding intensity (ln)” value: 8.69 ± 0.38 for the first, 9.02 ± 0.47 for the second.

“ATATAAATGATATGTACACACATTTATATTTATAAA [CACACA_site7600]” and “ATTAAAATGGTATGTGCGCACATAATATATATATGT [GTGCAC_site9572]” are within error of each other in “gcPBM binding intensity (ln)” value: 8.87 ± 0.42 for the first, 9.45 ± 0.4 for the second.

“TGGAAAATTATTAACACACACATATAAATATATATA [CACACA_site46]” and GTAATAAGAATTATAGTGCAATGTAATACATTTATA are within error of each other in “gcPBM binding intensity (ln)” value: 9.17 ± 0.35 for the first, 8.72 ± 0.45 for the second.

“TTCTTACATAAAATATCACACACATAAAAAAACAAT [CACACA_site8576]” and “ACAGTATCTGGTAGCTGTACGAGTCGTAGAGTGTAG [XGTACX_site2011]” are within error of each other in “gcPBM binding intensity (ln)” value: 9.17 ± 0.34 for the first, 9.09 ± 0.44 for the second.

“AAAATATAAAGTATTTGTACATAATATATTTTTAAA [XGTACX_site3494]” and “TTCATTAATGTGTAATGTACTTGTAATATGGGATTA [XGTACX_site3903]” are within error of each other in “gcPBM binding intensity (ln)” value: 8.49 ± 0.57 for the first, 8.65 ± 0.34 for the second.

“AATATATAAATAAATATATAAATAAATAATTGAAGC [CACACA_negctrl_site348]” and “CATTTTTTAATAATAGCACACAGGACATACAAAACA [CACACA_site1245]” are within error of each other in “gcPBM binding intensity (ln)” value: 8.97 ± 0.47 for the first, 9.02 ± 0.33 for the second.

“TATATATATTTATATGCATGTAATATATTTGTATTG [TGCATGCA_site323]” and “TGTTCTCTTCTTTTTTATTTTCCAAAGTAATAAGTT [TGCATGCA_negctrl_site424]” are within error of each other in “gcPBM binding intensity (ln)” value: 8.8 ± 0.38 for the first, 8.47 ± 0.55 for the second.

“AATTATTTTATGAAAAGTACACATTGTTTTAATTCT [XGTACX_site4506]” and “TAAATAAGTATTACTAGTACACACAAGTTGTTAATC [XGTACX_site7074]” are within error of each other in “gcPBM binding intensity (ln)” value: 8.61 ± 0.49 for the first, 8.93 ± 0.42 for the second.

Going from “AGAAAAAAGAGGGATACACACAAACATATATATATA [CACACA_site5269]” to “TTAATTATAATTATATGTACGAACTTTTTTTTTTTT [XGTACX_site6586]”, the “gcPBM binding intensity (ln)” value falls from 9.79 ± 0.44 to 8.43 ± 0.55.

“CATAAATCAGCCATAACACACATACATAAATACATA [CACACA_site4380]” and “AAATTGATTATAAATTGTACAAGAACATACAACCTT [XGTACX_site5986]” are within error of each other in “gcPBM binding intensity (ln)” value: 9.36 ± 0.46 for the first, 8.77 ± 0.33 for the second.

“CAAAAGCGATACGGCACACATTTCCTGTTTAAATGA [CACACA_site5519]” and “TTAATTTTTAGAAGAACACACACATATATATTATGA [CACACA_site7969]” are within error of each other in “gcPBM binding intensity (ln)” value: 8.99 ± 0.58 for the first, 8.87 ± 0.36 for the second.

“TTATATATTTTATTATTTATAATCTTTTTTTTATTT [CACACA_negctrl_site112]” and “TTATATTTCAATTAAACATGCATTTTTGTGTAGCAC [TGCATGCA_site214]” are within error of each other in “gcPBM binding intensity (ln)” value: 8.54 ± 0.62 for the first, 8.66 ± 0.4 for the second.

Going from “TCATATAGATTATACACACACATATATAGATATATA [CACACA_site6587]” to “TTTATTTATGTTGAAACATGCAAAAAGTTATTTATA [TGCATGCA_site716]”, the “gcPBM binding intensity (ln)” value falls from 9.27 ± 0.33 to 8.23 ± 0.4.

“TTCAAAAGCCGGATAACATGCAGTAGTAGAACAAAC [TGCATGCA_site413]” and “ACTCCATAATATTGATGTACTATAATGCATTTATTT [XGTACX_site5562]” are within error of each other in “gcPBM binding intensity (ln)” value: 9.16 ± 0.32 for the first, 9.06 ± 0.42 for the second.

“TTATAGAATTTATTTACACACAAACATTTATACTTT [CACACA_site7592]” and “TATTTATTTTCATATAGTACTTTTTTCAGGCATATA [XGTACX_site6691]” are within error of each other in “gcPBM binding intensity (ln)” value: 8.95 ± 0.32 for the first, 8.6 ± 0.41 for the second.

“TGGTATATAAAACACACACACATATGTATTTATATA [CACACA_site4665]” and “TTTTGCCTTTCTACTTGTACTTAAAATATTATAATT [XGTACX_site5483]” are within error of each other in “gcPBM binding intensity (ln)” value: 9.44 ± 0.28 for the first, 8.85 ± 0.41 for the second.
